# A collection of fitness landscapes (doi:10.1016/j.celrep.2020.107928)
# Over roughly 81,000 sequences, “one-hybrid fitness for binding NBS DNA” has its median near -0.1; the highest 2% begin near 0.36. The list shows a part of the results.
# B1: Caulobacter ParB omega fusion; a variant is named by its letters at X, in order, B8GW30 (parent)
# chain: MESVVVGEPGMSEGRRGLGRGLSALLGEVDAAPAQAPGEQLGGSREAPIEILQRNPDQPRRTFREEDLEDLSNSIREKGVLQPILVRPSPDTAGEYQIVAGERAWRAAQRAGLKTVPIMVRELDDLAVLEIGIIENVQRADLNVLEEALSYKVLMEKFERTQENIAQTIGKSXSHVANXMRLLXLPDEVQSYLVSGELTAXHARAIAAAADPVALAKQIIEGGLSVRETEALARKAPNLSAGKSKGGRPPRVKDTDTQALESDLSSVLGLDVSIDHRGSTGTLTITYATLEQLDDLCNRLTRGI
# Variants of: B1
# Assay: one-hybrid fitness for binding NBS DNA (the Noc-binding site; scaled: cognate 1, non-cognate 0); higher = stronger binding
# Settings: with NBS DNA site
# In short: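 Fitness here means the log change in variant-to-wild-type read ratio between plasmids sequenced before and after selection. That scale was set so cognate equals 1 and non-cognate equals 0. The selection was a bacterial one-hybrid screen of Caulobacter ParB libraries, four specificity codons randomised, in E. coli USO carrying a HIS3 reporter with the site 19 bp from the promoter, grown 48 hours at 37°C on M9-minus-histidine with 0.1 mM IPTG and 5 mM 3-AT.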
row,Variant,one-hybrid fitness for binding NBS DNA
1,CHTG,≤ 0.2
2,PVIN,≤ 0.2
3,PEWS,≤ 0.2
4,DVSM,≤ 0.2
5,RDEQ,≤ 0.2
6,ASTF,≤ 0.2
7,RLFS,≤ 0.2
8,ITIR,≤ 0.2
9,DCVK,≤ 0.2
10,GQRA,≤ 0.2
11,PIPG,≤ 0.2
12,KYDG,≤ 0.2
13,HMGT,≤ 0.2
14,NANT,≤ 0.2
15,KRVD,≤ 0.2
16,PFAL,≤ 0.2
17,LTVC,≤ 0.2
18,RQKR,0.752
19,ELQT,≤ 0.2
20,RNEA,≤ 0.2
21,TTYY,≤ 0.2
22,ICTY,≤ 0.2
23,ARVT,≤ 0.2
24,KRCG,≤ 0.2

row,Variant,one-hybrid fitness for binding NBS DNA
1,SVDS,≤ 0.2
2,CLQY,≤ 0.2
3,RKIK,≤ 0.2
4,LGKK,≤ 0.2
5,KHKS,≤ 0.2
6,QHAN,≤ 0.2
7,YVNT,≤ 0.2
8,VASE,≤ 0.2
9,TIQR,≤ 0.2
10,NYGG,≤ 0.2
11,DDLT,≤ 0.2
12,SLDL,≤ 0.2
13,NQHL,≤ 0.2
14,VWNT,≤ 0.2
15,WIFR,≤ 0.2
16,KTLF,≤ 0.2
17,QWLD,≤ 0.2
18,KFTK,≤ 0.2
19,TTAG,≤ 0.2
20,MSKG,≤ 0.2
21,WDNC,≤ 0.2
22,TNPA,≤ 0.2
23,NHYT,≤ 0.2
24,CGLC,≤ 0.2

row,Variant,one-hybrid fitness for binding NBS DNA
1,PPNA,≤ 0.2
2,GYSF,≤ 0.2
3,DIAG,≤ 0.2
4,QNFG,≤ 0.2
5,MITK,≤ 0.2
6,KIFS,≤ 0.2
7,GPKS,≤ 0.2
8,AFHT,≤ 0.2
9,KNLT,≤ 0.2
10,MFKE,≤ 0.2
11,IPRL,≤ 0.2
12,LMRI,≤ 0.2
13,FGAE,≤ 0.2
14,EETS,≤ 0.2
15,RSWQ,≤ 0.2
16,LYEL,≤ 0.2
17,AIFN,≤ 0.2
18,KTCA,≤ 0.2
19,CAQW,≤ 0.2
20,VYVC,≤ 0.2
21,NRRT,≤ 0.2
22,DDLM,≤ 0.2
23,VSAF,≤ 0.2
24,QLDH,≤ 0.2

row,Variant,one-hybrid fitness for binding NBS DNA
1,ASEV,≤ 0.2
2,RNPH,≤ 0.2
3,PANH,≤ 0.2
4,HFGS,≤ 0.2
5,THPA,≤ 0.2
6,APGI,≤ 0.2
7,SYTY,≤ 0.2
8,IEVV,≤ 0.2
9,AHEQ,≤ 0.2
10,MKGR,≤ 0.2
11,PSCL,≤ 0.2
12,VNCL,≤ 0.2
13,NGDR,≤ 0.2
14,QGKK,≤ 0.2
15,CWRR,≤ 0.2
16,LKDT,≤ 0.2
17,NCKE,≤ 0.2
18,QFAP,≤ 0.2
19,NLIM,≤ 0.2
20,RGWR,≤ 0.2
21,RCDT,0.266
22,RYAT,0.461
23,PDLW,≤ 0.2
24,GVIS,≤ 0.2

row,Variant,one-hybrid fitness for binding NBS DNA
1,FDYR,≤ 0.2
2,GEFN,≤ 0.2
3,IEVS,≤ 0.2
4,PCVF,≤ 0.2
5,NPLG,≤ 0.2
6,IIDG,≤ 0.2
7,TGPQ,≤ 0.2
8,PWLD,≤ 0.2
9,KATI,≤ 0.2
10,FATT,≤ 0.2
11,LMCG,≤ 0.2
12,HNEA,≤ 0.2
13,CCTS,≤ 0.2
14,KPHR,≤ 0.2
15,GLRT,≤ 0.2
16,CVTF,≤ 0.2
17,QCHE,≤ 0.2
18,TFLA,≤ 0.2
19,CSMR,≤ 0.2
20,LISL,≤ 0.2
21,LIDG,≤ 0.2
22,PCPR,≤ 0.2
23,PAQG,≤ 0.2
24,LDLG,≤ 0.2

row,Variant,one-hybrid fitness for binding NBS DNA
1,TIVR,≤ 0.2
2,CTMG,≤ 0.2
3,PCHF,≤ 0.2
4,RRSC,0.291
5,VAVL,≤ 0.2
6,ASYE,≤ 0.2
7,DNAS,≤ 0.2
8,SRAR,≤ 0.2
9,PFQS,≤ 0.2
10,DQTI,≤ 0.2
11,EIQV,≤ 0.2
12,KWVW,≤ 0.2
13,MINS,≤ 0.2
14,SVIM,≤ 0.2
15,VFIS,≤ 0.2
16,YSFT,≤ 0.2
17,FAYY,≤ 0.2
18,QLIR,0.294
19,DQCS,≤ 0.2
20,FPFG,≤ 0.2
21,DRTR,≤ 0.2
22,RPHY,≤ 0.2
23,QLIL,≤ 0.2
24,YSHA,≤ 0.2

row,Variant,one-hybrid fitness for binding NBS DNA
1,GPQG,≤ 0.2
2,NHER,≤ 0.2
3,WKVT,≤ 0.2
4,QHNY,0.205
5,YGRG,≤ 0.2
6,CDSD,≤ 0.2
7,HGAE,≤ 0.2
8,NSNG,≤ 0.2
9,KCRV,≤ 0.2
10,MLTC,≤ 0.2
11,RMDW,≤ 0.2
12,AVKR,≤ 0.2
13,AQNT,≤ 0.2
14,CLHG,≤ 0.2
15,YLPF,≤ 0.2
16,RDTK,≤ 0.2
17,LSFC,≤ 0.2
18,ATFL,≤ 0.2
19,TMGW,≤ 0.2
20,RCSQ,≤ 0.2
21,TNAT,≤ 0.2
22,RDQY,≤ 0.2
23,GMSS,≤ 0.2
24,KCHR,≤ 0.2

row,Variant,one-hybrid fitness for binding NBS DNA
1,RMWH,≤ 0.2
2,LAAL,≤ 0.2
3,SIHM,≤ 0.2
4,HPSS,≤ 0.2
5,PYDH,≤ 0.2
6,YDPT,≤ 0.2
7,NNIS,≤ 0.2
8,GMPW,≤ 0.2
9,DDHL,≤ 0.2
10,QSYA,0.208
11,ASCY,≤ 0.2
12,HMRA,≤ 0.2
13,WWLL,≤ 0.2
14,YSVP,≤ 0.2
15,VGIR,≤ 0.2
16,QSDE,≤ 0.2
17,TLCR,≤ 0.2
18,ASRG,≤ 0.2
19,DVVH,≤ 0.2
20,REKY,≤ 0.2
21,WMPS,≤ 0.2
22,HWCG,≤ 0.2
23,FRTM,≤ 0.2
24,PDNG,≤ 0.2

row,Variant,one-hybrid fitness for binding NBS DNA
1,QKDT,0.401
2,DVWR,≤ 0.2
3,TSCG,≤ 0.2
4,YNTH,≤ 0.2
5,ANAS,≤ 0.2
6,YERR,≤ 0.2
7,IAWG,≤ 0.2
8,ANRS,≤ 0.2
9,IALG,≤ 0.2
10,QYSS,0.357
11,IRTS,≤ 0.2
12,DVCT,≤ 0.2
13,PAYN,≤ 0.2
14,WCAG,≤ 0.2
15,EDHR,≤ 0.2
16,PSYF,≤ 0.2
17,KYLG,≤ 0.2
18,APNT,≤ 0.2
19,LTDG,≤ 0.2
20,PRTS,≤ 0.2
21,VGIN,≤ 0.2
22,QTPR,0.42
23,RCYV,≤ 0.2
24,LALF,≤ 0.2

row,Variant,one-hybrid fitness for binding NBS DNA
1,SKKT,≤ 0.2
2,TPHK,≤ 0.2
3,WNAW,≤ 0.2
4,RQTM,≤ 0.2
5,NQAC,≤ 0.2
6,SMMI,≤ 0.2
7,PKDF,≤ 0.2
8,HDCI,≤ 0.2
9,YQDT,≤ 0.2
10,NSTQ,≤ 0.2
11,RWDK,≤ 0.2
12,RRAT,0.782
13,CHLD,≤ 0.2
14,NSFW,≤ 0.2
15,WPIR,≤ 0.2
16,TIHH,≤ 0.2
17,PEMN,≤ 0.2
18,NTAR,≤ 0.2
19,ACMV,≤ 0.2
20,GGWR,≤ 0.2
21,YYGR,≤ 0.2
22,EDNC,≤ 0.2
23,QDRL,≤ 0.2
24,MCCR,≤ 0.2

row,Variant,one-hybrid fitness for binding NBS DNA
1,RWKY,≤ 0.2
2,CQLC,≤ 0.2
3,PTIT,≤ 0.2
4,PNST,≤ 0.2
5,VFLT,≤ 0.2
6,PEKF,≤ 0.2
7,LITS,≤ 0.2
8,TWTQ,≤ 0.2
9,AQGK,≤ 0.2
10,NSQG,≤ 0.2
11,IKWD,≤ 0.2
12,VRMT,≤ 0.2
13,TLTD,≤ 0.2
14,GLHL,≤ 0.2
15,PNNI,≤ 0.2
16,QCAL,≤ 0.2
17,LWCG,≤ 0.2
18,FPSD,≤ 0.2
19,TYKG,≤ 0.2
20,PNPK,≤ 0.2
21,CNWV,≤ 0.2
22,VNQF,≤ 0.2
23,ALNM,≤ 0.2
24,RWRP,≤ 0.2

row,Variant,one-hybrid fitness for binding NBS DNA
1,CRNP,≤ 0.2
2,GHVY,≤ 0.2
3,VASN,≤ 0.2
4,SGRL,≤ 0.2
5,TTMN,≤ 0.2
6,VDMY,≤ 0.2
7,GPKG,≤ 0.2
8,SLQG,≤ 0.2
9,TFFS,≤ 0.2
10,QAIG,≤ 0.2
11,HYPR,≤ 0.2
12,QQPK,≤ 0.2
13,PMWC,≤ 0.2
14,DYNL,≤ 0.2
15,TSQG,≤ 0.2
16,HDWY,≤ 0.2
17,NLKM,≤ 0.2
18,TREA,≤ 0.2
19,DIKC,≤ 0.2
20,LTTE,≤ 0.2
21,DIGR,0.229
22,RPKK,≤ 0.2
23,FPLT,≤ 0.2
24,PITD,≤ 0.2

row,Variant,one-hybrid fitness for binding NBS DNA
1,RFMM,≤ 0.2
2,GWNC,≤ 0.2
3,LVRP,≤ 0.2
4,DDYV,≤ 0.2
5,DPPG,≤ 0.2
6,VASM,≤ 0.2
7,TWNP,≤ 0.2
8,EIFG,≤ 0.2
9,QPAQ,≤ 0.2
10,QCQS,0.448
11,QQCR,0.63
12,RNFR,≤ 0.2
13,WMPG,≤ 0.2
14,PYCR,≤ 0.2
15,EYIS,≤ 0.2
16,QALP,≤ 0.2
17,RSSG,≤ 0.2
18,CVNS,≤ 0.2
